Source: ChEMBL document CHEMBL1201862, “PubChem BioAssay data set” (2004)
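Grown in 96-well plates, cells were treated for 48 hours with each compound at five concentrations. Insufficient inhibition: endpoint recorded as highest concentration tested. GI50 is the concentration that inhibits growth by half.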 The source made the active and inactive calls. No stated cut-off is given here; in the data, active = GI50 up to about 1.1 µM and inactive = higher. Peptide text beside a SMILES is read from it. * marks the point of attachment. Boc = CC(C)(C)OC(=O)*

test system: NCI-H322M; assay: NCI tumour cell line growth inhibition, 48 h

| SMILES | GI50 |
| --- | --- |
| CCCCCCCCCCCCCCCC1(OC)C[N+](C)(C)CCO1 (stereo unspecified) | inactive: 9.25 µM |
| COC(=O)[C@]12CC3C=CC1N(C3)C(CBr)c1c2n(S(=O)(=O)c2ccccc2)c2ccccc12 (stereo partly specified) | inactive: 73.6 µM |
| O=C(COc1cc(=O)oc2ccccc12)c1ccccc1 | inactive: 42.6 µM |
| CCCCC1(C2c3ccccc3Oc3ccccc32)C(=O)N(c2ccccc2)N(c2ccccc2)C1=O | inactive: > 88.9 µM |
| [N-]=[N+]=Nc1c(Cc2ccccc2)c(Cl)nc2ccccc12 | inactive: 13.1 µM |
| CC1=NN=C(C)C1/N=N/c1ccc2[nH]c(C)nc2c1 | inactive: 23.4 µM |
| CN(C)c1cccc(NC2=NCCO2)c1 | inactive: 56.9 µM |
| COC(=O)C1=C(C(=O)OC)C2(C)CCC(=O)C1O2 (stereo unspecified) | inactive: > 10 µM |
| CCOC(=O)c1cnccc1CC1(C#N)c2ccccc2C=CN1C(=O)c1ccccc1 (stereo unspecified) | inactive: 45.5 µM |
| CC(C)(C)c1ccc(OC2CCO2)cc1 (stereo unspecified) | inactive: 89.5 µM |
| COc1ccc(C2S/C(=C\c3cccc(O)c3)C(=O)N2NC(=O)Cc2ccccc2)cc1 (stereo unspecified) | inactive: > 100 µM |
| O=c1oc2ccccc2c(O)c1C(C/C(CCN1CCCC1)=N\Nc1ccccc1)c1ccccc1 (stereo unspecified) | inactive: > 100 µM |
| CC[C@](C)(O)C(=O)O[C@H]1C(=O)O[C@@H]2C[C@H]3C(C)=C[C@H](O)[C@@H](O)[C@]3(C)[C@H]3[C@@]4(O)OC[C@]32[C@@H]1[C@@H](C)[C@H]4O | inactive: 99.8 µM |
| CC(=O)OCCOc1cc2c([nH]c3ccccc32)c(C)c2cccc1-2 | inactive: 12.6 µM |
| CC(NC(=O)C1CCCN1C(=O)CNC(=O)OC(C)(C)C)C(=O)O (stereo not drawn) (Boc-Gly-Pro-Ala-OH; configuration not given here) | inactive: > 100 µM |
| CC(=O)NC(ON1C(=O)COc2ccccc21)C(Cl)(Cl)Cl (stereo unspecified) | inactive: > 100 µM |
| NC(=O)C(c1ccccc1)N1OC2C(=O)N(c3cccc4ccccc34)C(=O)C2C1c1c2ccccc2c(Cl)c2ccccc12 (stereo unspecified) | inactive: 14 µM |
| CC(C)=CC(=O)OC1C2C(C)=CC(O)C(O)C2(C)C2C3(O)OCC24C(CC(=O)OC14)C(C)C3O (stereo unspecified) | active: 1.08 µM |
| Nc1nc2cc(Cl)ccc2n1N | inactive: > 100 µM |
| O=CC[C@H]1C(=O)C[C@@H]2CCC[C@@H]21 | inactive: > 100 µM |
| CCCCCCCCC(=O)NCCN(CCN)C(=O)CCCCCCCC | inactive: 19.6 µM |
| N#Cc1nc2ccccc2nc1N1CCN(c2ccc([N+](=O)[O-])cc2)CC1 | inactive: > 100 µM |

| SMILES | GI50 |
| --- | --- |
| CCCCCCCCCC(=O)CC(=O)c1ccc(O)cc1O | inactive: 35.3 µM |
| O=C1CC(c2ccc(O)cc2)C2(O1)C(=O)OC(C(O)CO)C2O (stereo unspecified) | inactive: > 100 µM |
| CO/C(=N\N=C(/c1ccccc1)C(F)(F)F)c1ccncc1 | inactive: > 100 µM |
| CCOC(=O)/C=C/c1nc(C#N)c(N)o1 | inactive: > 100 µM |
| O=c1c2c(nc3[nH]ccn13)CCC2 | inactive: > 10 µM |
| CNc1nc(OC)c2c(n1)n(C)c[n+]2C [HETEROMINE B] | inactive: > 100 µM |
| CN(O)C(=O)c1ccc(OCc2cccc(Cl)c2)cc1 | inactive: 21.1 µM |
| O=C(c1ccccc1)c1cc(-c2ccccc2)c(-c2ccccc2)[nH]c(=O)c1=O | inactive: 45.7 µM |
| CC(C)Oc1c(-c2ccc(F)cc2)c(O)c2c3c1oc(=O)n3C=CC2C (stereo unspecified) | inactive: 13.4 µM |
| Cc1ccc(C2(C)CC/C(=N/N=C3/CCC(C)(c4ccc(C)c(C)c4)c4cc(C)c(C)cc43)c3cc(C)c(C)cc32)cc1C (stereo unspecified) | inactive: > 100 µM |
| CC(=O)NC1C(OCc2ccccc2)OC(CO)C(O)C1OCC(=O)N1CCCC1C(=O)NC(CCC(=O)NCCCCCNc1c2ccccc2nc2cccc([N+](=O)[O-])c12)C(N)=O (stereo unspecified) | active: 0.0288 µM |
| C=C=C(C(=O)OC)[S+]([O-])c1ccc([N+](=O)[O-])cc1[N+](=O)[O-] (stereo unspecified) | inactive: > 74.5 µM |
| C1CCC(OCc2nnn3c2CCC3)OC1 (stereo unspecified) | inactive: > 100 µM |
| O=[N+]([O-])c1nccn1COCCF | inactive: > 100 µM |
| O=c1[nH]c(=S)[nH]c(-c2ccccc2)c1Cc1c(O)ccc2ccccc12 [CAMBINOL] | inactive: 29 µM |
| CC(=O)OC(C)(C)CCC(=O)[C@](C)(O)[C@H]1[C@H](O)C[C@@]2(C)[C@@H]3CC=C4C(C)=C(OC5OC(CO)C(O)C(O)C5O)C(=O)C[C@@H]4[C@]3(C)C(=O)C[C@]12C (stereo partly specified) | inactive: > 100 µM |
| NC12CC3C4CC5(N)CC3C(C1)C(C5)C4C2 | inactive: > 100 µM |
| NCCCCC(=O)c1cccnc1 | inactive: > 100 µM |
| O=C1C=CC(=O)C1(Br)Br | inactive: 13.3 µM |
| CN(C)c1nc(N)nc(CCl)n1 | inactive: 28.7 µM |
| Cc1ccc(O)c(Cc2nc3ccccc3nc2-c2cccc(Cl)c2)c1 | inactive: > 100 µM |
| O=C(NC1C2CC3CC(C2)CC1C3)c1ccncn1 (stereo unspecified) | inactive: > 100 µM |

| SMILES | GI50 |
| --- | --- |
| O=C(O)c1nc2cc(Cl)ccc2[nH]c1=O | inactive: > 100 µM |
| COc1cc2cc(C(=O)N3CC(CCl)c4ccc([N+](C)(C)Cc5ccccc5[N+](=O)[O-])cc43)[nH]c2c(OC)c1OC (stereo unspecified) | inactive: 2.9 µM |
| CCc1ccc2c(c1)CC1(C2)Cc2cc3c(cc2C1)C(=O)CC3 (stereo unspecified) | inactive: 26.7 µM |
| CCOC(=O)CN1C(=O)c2cccc3cc([N+](=O)[O-])cc(c23)C1=O | inactive: 12.6 µM |
| COc1ccc(OC)c2[s+]snc12 | inactive: > 100 µM |
| Cc1cccc(Cn2c3c(c4cc(O)ccc42)C(=O)c2ccccc2C3=O)c1 | inactive: > 59.2 µM |
| COc1ccc(C(O)c2cc(OC)c(OC)c(OC)c2)cc1 (stereo unspecified) | inactive: 41.4 µM |
| CCOP(=O)(/C=C\n1ccc(=O)[nH]c1=O)OCC | inactive: > 100 µM |
| O=C(/C=C/c1cccc(Br)c1)c1ccc(Cl)cc1 | inactive: 18.1 µM |
| NC(=O)C1CCN(Cc2c(Cl)c(Cl)c(CN3CCC(C(N)=O)CC3)c(Cl)c2Cl)CC1 | inactive: 50.5 µM |
| O=C(N/C(=C\c1ccccc1)C1Nc2ccccc2C(=O)O1)c1ccccc1 (stereo unspecified) | inactive: > 100 µM |
| O=P(NCCCO)(OCc1ccccc1)N(CCCl)CCCl (stereo unspecified) | inactive: > 100 µM |
| Cc1c(NC(=S)N/N=C\C(=N/NC(=S)Nc2c(C)n(C)n(-c3ccccc3)c2=O)c2ccccc2)c(=O)n(-c2ccccc2)n1C | inactive: > 100 µM |
| O=C1CCC(=O)C1=NNc1cc(Cl)cc(Cl)c1 | inactive: > 100 µM |
| CC1=C(C(=O)Nc2cc(=O)n(C)c(=O)n2C)C(c2ccco2)C(C(=O)Nc2cc(=O)n(C)c(=O)n2C)=C(C)N1 | inactive: > 100 µM |
| Cc1nc(Nc2ccc([N+](=O)[O-])cc2)sc1C(=O)/C=C/c1ccc(N(C)C)cc1 | inactive: 43.5 µM |
| COc1ccc(/N=N/C(=O)NC(Cc2ccccc2)C(=O)O)cc1 (stereo unspecified) | inactive: > 100 µM |
| COC(CN(C)C(=S)Nc1cccc2ccccc12)OC | inactive: > 10 µM |
| CCCCCC1CC(C(C)=O)CN1c1ccc(F)cc1 (stereo unspecified) | inactive: > 100 µM |
| c1ccc2c(c1)[nH]c1nc3cc(-c4ccc5nc6c(nc5c4)[nH]c4ccccc46)ccc3nc12 | inactive: > 100 µM |
| O=C1CSC(Cc2nc3ccccc3[nH]2)=N1 | inactive: 25 µM |
| COc1cc2cc3c4c(cc(OC)c(OC)c4c2cc1OC)CCN3C(=O)CCC(=O)O | inactive: > 100 µM |
